This is one part of the list. For some of these results: At the low end of the ranking the order means little. For some of these results: The protein was read in a cell extract, so binding may be indirect.

39 sequences from publication PMC6451091 can be followed below.

One assay concerns the target PU.1 (IVT) (UniProt P17947). Nature of the assay: protein-binding microarray (PBM). The settings on record: 20 mM HEPES pH 7.9, 100 mM NaCl, 1 mM DTT, 0.2 mg/mL BSA, 0.02% Triton X-100, 2% milk, 0.4 mg/mL salmon testes DNA; 1 h; temperature not stated; high values mean tight binding; double strand, one strand shown; sequences stand for … in GCCTAGCAC…GTGCTAGGTCTTGATTCGCTTGACGCTGCTG
Consider CTGCATCCACCCTCTGCCCT, for which the binding signal is -0.818 z-score.
AGTAGCAGTCCTGTCATGCG yielded a binding signal of -0.457 z-score.
For the sequence AGGCCATTTAGGAATCTTCT, the binding signal is -0.495 z-score.
In turn, TAGTAGACTGCGTGAAAGCA had a binding signal of -0.205 z-score.
TCGAGCATCTCCATCTTTCT gave a binding signal of -0.0607 z-score.
The sequence GGAAGTTCACCCATTTGGCA showed a binding signal of 0.853 z-score.

The target of another assay is PU.1 (endogenous, THP-1 nuclear extract) (UniProt P17947). Kind of assay: nuclear extract protein-binding microarray (nextPBM). The note with it: 20 mM HEPES pH 7.9, 100 mM NaCl, 1 mM DTT, 0.2 mg/mL BSA, 0.02% Triton X-100, 2% milk, 0.4 mg/mL salmon testes DNA; 1 h; temperature not stated; high values mean tight binding; double strand, one strand shown; sequences stand for … in GCCTAGCAC…GTGCTAGGTCTTGATTCGCTTGACGCTGCTG
For TTACTCTGTTACAAAATTGC, the binding signal was -0.256 z-score.
As to CCCATCACATATCTGTATCC, the binding signal was -0.343 z-score.
As to AGCTTTAAGAGCCAGTGCTC, the binding signal was -0.37 z-score.
ATGAATAAATATCACTTGAT had a binding signal of -0.455 z-score.
Sequence TGAAATAATCCTGAGCTTTT showed a binding signal of -0.431 z-score.
Still for that read-out and setting: as for TATACAGAGGAGAATAATTA, the figure is -0.096 z-score; as for GCTATACTAAAAAGACATAT, -0.775 z-score; as for GTGGGTTTGTCATTTGTATC, -0.613 z-score.
Still for that read-out and setting: as for TTCCGGACCCTGCATTTCAC, the figure is 2.85 z-score; as for GGAGGAAGTCTTGAGGTGTT, 1.37 z-score; as for TATTCATATGCGGGCAGGAA, 3.24 z-score.
The sequence CTGCTTTTGAGGACCTCAGG came in with a binding signal of -0.00722 z-score.
TCAGTGGGGAAAGAATGATC showed a binding signal of -0.0653 z-score.
Sequence TTACATGGATGGGGATGTGG showed a binding signal of 1.06 z-score.
Take CCACCCTCACTGCCTCTCTG: the binding signal was -0.188 z-score.
As for TACAACAAAAACTACTATTC, the binding signal was -0.347 z-score.
The same measure, in the same setting: as for CATCCTACTTTAAGTTTCTG, the figure is -0.0185 z-score; as for AGCACTTTTAATTGGCAGAG, -0.326 z-score.
In turn, AGAAACACTGCGTGAAACTG yielded a binding signal of -0.246 z-score.
In turn, TCTTGTAAAGCTTTTCCAAT had a binding signal of -0.442 z-score.
The sequence GTCTTATTTCCTCAAAATAG came in with a binding signal of 2.68 z-score.
Sequence TTGGTAAAAGAGCAGCACGA registered a binding signal of -0.488 z-score.
The same measure, in the same setting: as for CGCACCCCGCCTCCCTGGCC, the figure is 0.0605 z-score; as for AGAGCCTGACACCGCTGCTC, -0.0817 z-score.
The sequence GAGAGTAGCCTAGTCCCTAG returned a binding signal of -0.41 z-score.
Consider TCAGAAGAGAATAGGAGTCC, for which the binding signal is -0.483 z-score.
Same read-out and setting: as for GGTCCGTCCTCTTCCGGTGT, the figure is 0.239 z-score; as for GCTTTAACTGCCTGAAACTG, -0.721 z-score; as for ATTGTATTTCATCACAGTCT, -0.654 z-score.
ACTTGTGAAGGAAATGAATC had a binding signal of 0.618 z-score.
In the case of AGAAGAACTGCGTGAAAGAA, the binding signal came to 0.124 z-score.
Sequence AGTCCTGAGTCAGAGGCAAG returned a binding signal of -0.326 z-score.
Same read-out and setting: as for CATGAATGAGATTTGGAACT, the figure is 0.31 z-score; as for CTGCATCCACCCTCTGCCCT, 0.00483 z-score; as for AGTAGCAGTCCTGTCATGCG, -0.113 z-score.
The sequence AGGCCATTTAGGAATCTTCT registered a binding signal of -0.0474 z-score.
In turn, TAGTAGACTGCGTGAAAGCA had a binding signal of -0.45 z-score.
TCGAGCATCTCCATCTTTCT registered a binding signal of -0.104 z-score.
Sequence GGAAGTTCACCCATTTGGCA displayed a binding signal of 1.17 z-score.

In another assay the target is T1, FLI1 (endogenous, THP-1 nuclear extract) (UniProt Q01543).
T1 sequence: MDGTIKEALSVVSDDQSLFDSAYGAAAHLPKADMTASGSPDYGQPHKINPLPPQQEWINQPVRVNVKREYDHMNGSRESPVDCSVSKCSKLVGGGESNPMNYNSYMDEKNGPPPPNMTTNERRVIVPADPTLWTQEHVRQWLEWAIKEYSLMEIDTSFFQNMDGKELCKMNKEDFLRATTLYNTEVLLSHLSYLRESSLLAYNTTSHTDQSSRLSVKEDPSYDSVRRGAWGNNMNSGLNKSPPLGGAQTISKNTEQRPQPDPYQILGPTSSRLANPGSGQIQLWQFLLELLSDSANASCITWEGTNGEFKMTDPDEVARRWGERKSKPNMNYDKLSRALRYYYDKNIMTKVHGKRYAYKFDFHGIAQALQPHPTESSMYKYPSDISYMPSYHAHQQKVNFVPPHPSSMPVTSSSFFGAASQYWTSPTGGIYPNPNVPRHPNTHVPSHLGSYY
The description is as above. The note with it: 20 mM HEPES pH 7.9, 100 mM NaCl, 1 mM DTT, 0.2 mg/mL BSA, 0.02% Triton X-100, 2% milk, 0.4 mg/mL salmon testes DNA; 1 h; temperature not stated; high values mean tight binding; double strand, one strand shown; sequences stand for … in GCCTAGCAC…GTGCTAGGTCTTGATTCGCTTGACGCTGCTG
Sequence TTACTCTGTTACAAAATTGC showed a binding signal of 0.155 z-score.
CCCATCACATATCTGTATCC: the binding signal was 1.03 z-score.
With AGCTTTAAGAGCCAGTGCTC, the binding signal was -1.29 z-score.
Turning to ATGAATAAATATCACTTGAT, the binding signal was -0.122 z-score.
On the same count and under the same terms, as for TGAAATAATCCTGAGCTTTT, the figure is -0.236 z-score; as for TATACAGAGGAGAATAATTA, -0.418 z-score; as for GCTATACTAAAAAGACATAT, 0.111 z-score.
In the case of GTGGGTTTGTCATTTGTATC, the binding signal amounted to 0.142 z-score.
Sequence TTCCGGACCCTGCATTTCAC came in with a binding signal of 7.45 z-score.
GGAGGAAGTCTTGAGGTGTT: the binding signal was 1.66 z-score.
On the same count and under the same terms, as for TATTCATATGCGGGCAGGAA, the figure is 5.71 z-score; as for CTGCTTTTGAGGACCTCAGG, -0.426 z-score.
Still for that read-out and setting: as for TCAGTGGGGAAAGAATGATC, the figure is -0.0399 z-score; as for TTACATGGATGGGGATGTGG, 0.577 z-score.
Still for that read-out and setting: as for CCACCCTCACTGCCTCTCTG, the figure is -0.145 z-score; as for TACAACAAAAACTACTATTC, -0.066 z-score.
